Measurements taken from paper PMC4336329 (PLoS ONE, 2015).
Among all 310,000 compounds or so, about 2,200 (0.71%) showed an effect of 50% or more. Effects have a minus sign here. This is one part of the list.

biological target: human ether-à-go-go-related gene (hERG) potassium channel (human, UniProt Q12809); experiment: primary screen, population patch clamp on CHO cells stably expressing hERG
Sequence (Q12809 whole entry, looked up): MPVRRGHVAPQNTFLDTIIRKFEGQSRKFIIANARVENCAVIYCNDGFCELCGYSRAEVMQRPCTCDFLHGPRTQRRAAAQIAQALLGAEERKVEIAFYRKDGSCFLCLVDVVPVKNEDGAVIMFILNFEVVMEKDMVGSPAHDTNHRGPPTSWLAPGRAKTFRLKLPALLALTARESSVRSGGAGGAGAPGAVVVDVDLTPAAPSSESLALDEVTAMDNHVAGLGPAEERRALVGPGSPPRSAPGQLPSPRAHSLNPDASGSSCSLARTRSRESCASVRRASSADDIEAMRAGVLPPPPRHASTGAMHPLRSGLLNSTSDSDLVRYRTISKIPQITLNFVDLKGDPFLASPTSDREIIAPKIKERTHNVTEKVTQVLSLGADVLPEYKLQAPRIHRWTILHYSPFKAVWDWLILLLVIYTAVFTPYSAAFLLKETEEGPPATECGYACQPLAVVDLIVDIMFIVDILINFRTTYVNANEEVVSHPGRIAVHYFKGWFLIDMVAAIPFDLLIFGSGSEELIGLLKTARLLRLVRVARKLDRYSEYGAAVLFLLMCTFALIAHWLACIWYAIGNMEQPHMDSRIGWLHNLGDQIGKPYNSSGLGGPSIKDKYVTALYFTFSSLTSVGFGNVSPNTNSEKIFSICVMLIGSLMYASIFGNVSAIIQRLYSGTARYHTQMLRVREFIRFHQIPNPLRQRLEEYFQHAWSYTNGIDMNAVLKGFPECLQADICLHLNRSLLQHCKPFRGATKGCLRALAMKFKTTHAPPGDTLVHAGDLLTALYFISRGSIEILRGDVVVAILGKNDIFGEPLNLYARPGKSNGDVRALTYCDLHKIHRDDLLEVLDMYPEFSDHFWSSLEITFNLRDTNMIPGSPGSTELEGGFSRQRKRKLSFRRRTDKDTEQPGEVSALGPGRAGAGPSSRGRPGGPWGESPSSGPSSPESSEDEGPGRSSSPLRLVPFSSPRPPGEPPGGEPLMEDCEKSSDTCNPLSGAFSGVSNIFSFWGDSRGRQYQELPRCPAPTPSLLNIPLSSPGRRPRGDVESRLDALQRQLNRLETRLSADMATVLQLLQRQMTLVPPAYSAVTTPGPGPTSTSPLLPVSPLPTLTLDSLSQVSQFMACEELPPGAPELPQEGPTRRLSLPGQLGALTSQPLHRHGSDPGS

Going from `C/C(=N/NC(=O)c1ccco1)c1cccc(NC(=O)c2ccc(C)s2)c1` to `CC(C)CNC(=O)/C(C#N)=C1\N=C(NC(=O)c2ccco2)c2ccccc21`, the “hERG current change (%, negative = inhibition) at 1uM” value falls from 5.93% to 1.07%.

Going from `CCc1ccc2oc(C(=O)NCc3ccc(S(N)(=O)=O)cc3)c(C)c2c1` to `CN(C)c1ccc(CNC(=O)c2ccc(CNc3c(N4CCCCC4)c(=O)c3=O)cc2)cc1`, the “hERG current change (%, negative = inhibition) at 1uM” value falls from 20.2% to 9.94%.

Compared with `Cc1cc(C)nc(NS(=O)(=O)c2ccc(NC(=O)c3ccc4c(c3)OCCO4)cc2)n1`, `O=C(CCCC(=O)N(c1ccc2c(c1)OCCO2)C(C(=O)NC1CCCCC1)c1ccc(Cl)cc1)Nc1ccccn1` (centres unmarked) is lower in “hERG current change (%, negative = inhibition) at 1uM” value: 15.2% for the first, 11.1% for the second.

Compared with `COc1ccc(NC(=O)CN(C)C(=O)c2ccccc2Sc2ncnc3sc(C)c(C)c23)cc1`, `Cc1ccccc1C(=O)N1CCC(C(=O)Nc2ccc(C(C)C)cc2)CC1` is lower in “hERG current change (%, negative = inhibition) at 1uM” value: 19.9% for the first, -6.35% for the second.

Going from `Cc1cccc(OCC(=O)NCC(=O)N=Nc2c(O)[nH]c3ccc([N+](=O)[O-])cc23)c1` to `COc1ccc(CCNC(=O)c2nnn(CC(=O)Nc3ccccc3)c2N)cc1OC`, the “hERG current change (%, negative = inhibition) at 1uM” value falls from 14.6% to 8.46%.

First: CC1CN(C(=O)c2cc(S(=O)(=O)N3CCCC3)c(Cl)cc2Cl)CC(C)O1 (centres unmarked)
Second: CSc1ncccc1C(=O)N1CCN(S(=O)(=O)c2cc(C)ccc2C)CC1
The “hERG current change (%, negative = inhibition) at 1uM” value of the first is higher: 12.6% for the first, 6.27% for the second.

Going from `O=C(O)Cn1c(Cc2ccccc2)nc2ccccc21` to `CC12CN(Cc3ccccc3)CC(C)(CN(Cc3ccccc3)C1)C2=NO`, the “hERG current change (%, negative = inhibition) at 1uM” value falls from 1.01% to -9.72%.

First: O=C(c1ccc2ncsc2c1)N1CCN(c2ccc(O)cc2)CC1
Second: CCN1CCN(c2nc(-c3ccncc3)nc3ccccc23)CC1
The “hERG current change (%, negative = inhibition) at 1uM” value of the first is higher: -0.0125% for the first, -75.6% for the second.

Compared with `CCc1cccc(C)c1NC(=O)CC(C)(C)CC(=O)O`, `CCOc1ncccc1C(=O)OCc1ccc(C(=O)OC)o1` is lower in “hERG current change (%, negative = inhibition) at 1uM” value: 15.5% for the first, 5.37% for the second.

First: COc1cccc(Nc2cc(N3CCOCC3)c3nonc3c2[N+](=O)[O-])c1
Second: COc1ccc(-c2[nH]ncc2CN(C)CCN2CCOCC2)cc1F
The “hERG current change (%, negative = inhibition) at 1uM” value of the first is lower: 1.39% for the first, 13.9% for the second.

First: COc1ccc(P2(=O)Nc3ccccc3N2)cc1
Second: Cc1ccc(S(=O)(=O)CCC(=O)OCC(=O)NC(C)c2ccccc2)cc1 (centres unmarked)
The “hERG current change (%, negative = inhibition) at 1uM” value of the first is lower: 11.1% for the first, 15.4% for the second.

First: CO/C([O-])=N/c1c[n+](-c2ccc(C)cc2)no1
Second: CCOC(=O)c1c(O)c2ccccc2oc1=O
The “hERG current change (%, negative = inhibition) at 1uM” value of the first is lower: -4.2% for the first, 10.3% for the second.

Going from `CCC(=O)c1ccc(OCCN2CCOCC2)cc1` to `CC(=O)c1ccc(OCC(=O)NCC2(N3CCCCC3)CCCCC2)cc1`, the “hERG current change (%, negative = inhibition) at 1uM” value rises from -10.3% to 17.5%.

Compared with `CCC1CO/C(=C(\C(Cl)=C(Cl)Cl)[N+](=O)[O-])N1` (centres unmarked), `CCOC(=O)C1=C(N)OC2=C(C(=O)CC(C)(C)C2)C1c1ccoc1` (centres unmarked) is lower in “hERG current change (%, negative = inhibition) at 1uM” value: 4.56% for the first, -21% for the second.

First: Cn1nc(OCC(=O)O)cc1C(F)(F)F
Second: Cc1ccc(CN(C(=O)C(F)(F)F)C(C(=O)NC2CCCCC2)c2ccco2)cc1 (centres unmarked)
The “hERG current change (%, negative = inhibition) at 1uM” value of the first is higher: 11.1% for the first, 6.67% for the second.

Compared with `CCCNC(=O)c1ccccc1NC(=O)c1ccc(CSc2ccccc2)cc1`, `N/C(Cc1ccc([N+](=O)[O-])cc1)=N\OC(=O)C(c1ccccc1)c1ccccc1` is lower in “hERG current change (%, negative = inhibition) at 1uM” value: 4.11% for the first, -33% for the second.

Compared with `COc1cc(Cl)c(CN2CCCC(CO)(Cc3ccccc3)C2)cc1OC` (centres unmarked), `COc1ccc(CCC(=O)NC2=NCCS2)cc1OC` is higher in “hERG current change (%, negative = inhibition) at 1uM” value: -2.72% for the first, 8.4% for the second.

Compared with `CC1CCCC(NC(=O)Nc2cccs2)C1C` (centres unmarked), `CC1CCC2C(C)C(=O)OC3OC4(C)CCC1C32OO4` (centres unmarked) is higher in “hERG current change (%, negative = inhibition) at 1uM” value: 5.11% for the first, 12% for the second.

Compared with `COc1ccc(CCNC(=O)COc2cc(C)cc3oc(=O)cc(C)c23)cc1OC`, `Cc1cc(C(=O)COC(=O)Cc2ccc(Br)cc2)c(C)n1C` is higher in “hERG current change (%, negative = inhibition) at 1uM” value: 5.21% for the first, 16.6% for the second.

First: O=[N+]([O-])c1cc(-c2n(-c3ccccn3)c3ccccc3[n+]2-c2ccccn2)ccc1Cl.[I-]
Second: O=[N+]([O-])c1ccc(-c2ncc(-c3ccc(Br)cc3)o2)cc1
The “hERG current change (%, negative = inhibition) at 1uM” value of the first is lower: 6.8% for the first, 15.6% for the second.

Going from `CC(CCCCCCCCC(=O)O)N(CCO)C(=O)OC(C)(C)C` (centres unmarked) to `CCC(C)NC(=O)C(CCSC)NC(=O)c1ccccc1` (centres unmarked), the “hERG current change (%, negative = inhibition) at 1uM” value falls from 9.6% to 8.78%.

Compared with `CN(C)CCCNC(=O)c1ccc(Cl)c(S(=O)(=O)N(C)c2ccccc2)c1.Cl`, `CSc1nc2ncc3c(n2n1)CC(C)(C)CC3=O` is higher in “hERG current change (%, negative = inhibition) at 1uM” value: -0.935% for the first, 3.97% for the second.
